# Data published in the supplement of paper PMC4466236.
# The full ranking holds about 33,000 sequences; the median of “E-score (dimensionless, -0.5 to 0.5)” is about -0.058, and the highest 2% start at about 0.35. The list shows a part of the results.
# System: MvaT
# Experiment: PBM 8-mer E-score (mean of HK and ME arrays) (E-score (dimensionless, -0.5 to 0.5)); higher = stronger relative binding preference; most listed sequences are background and not binding sites
# Procedure, shortened: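 Full-length P. aeruginosa MvaT carrying an N-terminal glutathione S-transferase tag was tested by protein binding microarray following a previously described protocol. Two universal double-stranded 60-mer arrays, ME and HK, were used, each with a constant 25-mer primer region and a variable 35-mer region covering all 8-mers. The rank-based E-score is the mean of the two arrays, parsed with a custom script. Its range runs from -0.5 to 0.5 for each 8-mer.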
row,Sequence,PBM 8-mer E-score
1,AATGATAG,0.17
2,GCCAAAGC,-0.302
3,GACTACAC,-0.0579
4,GTGAGTGA,0.00485
5,ACCCTAAC,-0.0407
6,ATCTCAGC,-0.162
7,AAAGCCAT,-0.111
8,CGCATTCC,-0.0892
9,AAATGGTC,-0.0709
10,TACCGACA,0.0693
11,TACGGAAA,0.0573
12,CGTGCCCA,-0.0852
13,CACGGCAA,0.0842
14,CACAGGGC,-0.199
15,AACATCAG,0.0669
16,GGGTCTAC,-0.203
17,GGATAGCA,-0.13
18,CTTCCTAC,-0.199
19,CTGTTAGA,0.00455
20,GGTCAGGA,-0.122
21,GAACCAGC,-0.102
22,ATAGTGTG,0.179

row,Sequence,PBM 8-mer E-score
1,GCACCTGC,-0.282
2,CTAACTTA,0.379
3,ACCTAAAT,0.136
4,CACGGATC,-0.196
5,CGATCATA,0.167
6,GAGGAAAA,-0.134
7,AACGGTCT,-0.0665
8,AAACACTG,0.132
9,CAGGTCAA,-0.00751
10,GGACGCCC,-0.376
11,TGGTGAAA,0.0106
12,AAGGTAGG,-0.107
13,CCAGGTCG,-0.171
14,ACGCGCTA,0.13
15,ATCTGCGC,-0.0527
16,GCATGCAA,0.101
17,TAAAACCA,0.176
18,CTGCAGCA,-0.157
19,CGCCGCCC,-0.334
20,CTTCAGTA,-0.0541
21,CAGGCAAG,-0.116
22,ACAGTCGC,-0.0394

row,Sequence,PBM 8-mer E-score
1,AGCCCATC,-0.146
2,ACGACACT,0.0503
3,CCACTCTC,-0.0989
4,CCGACCAA,-0.0461
5,GGGCAGCA,-0.139
6,AGGCTCGA,-0.246
7,CCACGGCG,-0.3
8,TGGCCCAA,-0.248
9,GCAAGACA,-0.0189
10,GTTAATAA,0.377
11,CTGTCGAC,-0.0262
12,ATTCTAGA,0.161
13,ACGTCGTA,-0.0795
14,ACGAGTGG,-0.0751
15,AGTGATTG,-0.0609
16,CCGGTGGA,-0.173
17,AATCCAGG,-0.169
18,AATGCGAT,0.0892
19,ACAGACGA,-0.0669
20,CGTAGTAA,0.0808
21,ACCTAGCA,-0.0765
22,CCAAAGGC,-0.237

row,Sequence,PBM 8-mer E-score
1,AAGATATG,0.136
2,GAAGGCAA,-0.252
3,TCCGAGCA,-0.0557
4,CCGTCACG,-0.177
5,ACGTCAGC,-0.156
6,AGCCAATC,-0.00652
7,GCTATGAC,-0.196
8,AGGGCCAA,-0.211
9,GAGTGGAA,-0.0786
10,AGGAGCAA,-0.265
11,CTAGCTCA,-0.255
12,CATGGATC,-0.101
13,AGTATGCC,0.0426
14,GATAGTTA,0.311
15,AATTCGAA,0.273
16,CTGGTCGA,-0.0624
17,GCACATAC,0.0384
18,ACGTCTCA,-0.161
19,ACGGTTTC,-0.215
20,GCCCGATA,-0.0689
